The values below come from publication PMC4336329 (PLoS ONE, 2015).

Structures are written as SMILES. Screen size: about 310,000 compounds; about 14,000 (4.5%) showed an effect of 50% or more. The effect is printed as a negative number. This is one part of the list.
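Further: peak tail current of the secondary pulse compared with the same well before compound.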

The target in this assay is human ether-à-go-go-related gene (hERG) potassium channel (human, UniProt Q12809). The assay is described as follows: primary screen, population patch clamp on CHO cells stably expressing hERG.
Sequence of human ether-à-go-go-related gene (hERG) potassium channel (Q12809 whole entry, looked up): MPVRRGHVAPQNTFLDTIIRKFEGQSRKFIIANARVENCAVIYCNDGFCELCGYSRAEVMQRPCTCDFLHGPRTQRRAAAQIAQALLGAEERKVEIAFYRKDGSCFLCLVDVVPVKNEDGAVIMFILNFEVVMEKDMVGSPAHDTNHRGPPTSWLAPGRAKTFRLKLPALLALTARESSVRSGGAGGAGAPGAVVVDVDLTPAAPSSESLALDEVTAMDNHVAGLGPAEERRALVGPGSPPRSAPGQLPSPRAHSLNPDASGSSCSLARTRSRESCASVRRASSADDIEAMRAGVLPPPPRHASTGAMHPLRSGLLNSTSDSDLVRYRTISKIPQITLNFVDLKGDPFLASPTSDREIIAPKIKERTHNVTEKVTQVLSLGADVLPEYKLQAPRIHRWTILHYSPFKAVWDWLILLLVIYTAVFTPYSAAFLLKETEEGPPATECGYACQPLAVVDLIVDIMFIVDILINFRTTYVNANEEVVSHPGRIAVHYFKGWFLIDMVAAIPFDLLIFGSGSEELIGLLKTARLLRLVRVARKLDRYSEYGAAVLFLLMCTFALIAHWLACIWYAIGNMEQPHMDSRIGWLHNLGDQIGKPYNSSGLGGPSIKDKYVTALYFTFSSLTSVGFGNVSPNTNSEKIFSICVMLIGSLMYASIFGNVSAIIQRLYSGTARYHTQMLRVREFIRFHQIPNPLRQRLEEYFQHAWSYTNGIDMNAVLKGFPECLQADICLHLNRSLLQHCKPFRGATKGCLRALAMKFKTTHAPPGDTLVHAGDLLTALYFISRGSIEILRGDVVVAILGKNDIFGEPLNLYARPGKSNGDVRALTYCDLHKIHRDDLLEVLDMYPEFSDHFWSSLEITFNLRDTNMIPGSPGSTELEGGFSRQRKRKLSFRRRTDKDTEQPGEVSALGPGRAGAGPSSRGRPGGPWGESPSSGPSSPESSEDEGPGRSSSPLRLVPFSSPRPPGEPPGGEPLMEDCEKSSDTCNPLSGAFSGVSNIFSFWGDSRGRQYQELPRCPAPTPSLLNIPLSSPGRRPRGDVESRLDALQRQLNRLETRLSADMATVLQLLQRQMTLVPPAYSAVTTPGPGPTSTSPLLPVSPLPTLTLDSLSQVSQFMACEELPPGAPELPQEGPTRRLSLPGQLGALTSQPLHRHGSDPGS
As to `O=C1NCCN(Cc2c(F)cccc2Cl)C1CC(=O)N1CCCO1` (stereo not shown), the “hERG current change (%, negative = inhibition) at 10uM” value was 25.1%.
Next, `CSc1nnc(-c2cccc(C)c2)n1N`: 7.87%; `N/C(=N\OC(=O)CCC(=O)O)c1ncc(C(F)(F)F)cc1Cl`: 19.2%; `O=C(Nc1cc(Cl)ccc1Cl)Nn1cnnc1`: 11.5%.
The result for `O=C(CCCn1c(=O)[nH]c2ccsc2c1=O)N1CCN(c2ccccn2)CC1` reads 5.57%.
Consider `COc1cc(OC)c(C(=O)Nc2ccc(C(=O)c3ccccc3)cc2)cc1OC`, for which the “hERG current change (%, negative = inhibition) at 10uM” value is listed as 11.7%.
Turning to `Cc1cccc(OCC(=O)NNC(=O)c2cccs2)c1`, the “hERG current change (%, negative = inhibition) at 10uM” value is recorded as 6.4%.
As to `CCCCNC(=O)c1ccccc1NC(=O)CCC`, the “hERG current change (%, negative = inhibition) at 10uM” value came out at 7.1%.
The result for `CCOC(=O)c1c(NS(C)(=O)=O)sc2c1CCC(C)C2` (stereo not shown) reads 6.1%; that for `CC(C)CC(NC(=O)c1ccc(C#CC(C)(C)O)s1)C(=O)O` (stereo not shown), 18.7%.
Consider `O=C(CCC1CCN(C(=O)c2cccc(Cl)c2F)CC1)Nc1ccccc1`, for which the “hERG current change (%, negative = inhibition) at 10uM” value is -31.6%.
As to `COc1ccccc1N1CCN(S(=O)(=O)c2cc(-c3cc(C)no3)ccc2C(C)C)CC1`, the “hERG current change (%, negative = inhibition) at 10uM” value stood at 16.1%.
Turning to `CCOc1ccc(NC(=O)CCNC(=O)N2C[C@H]3C[C@@H](C2)c2cccc(=O)n2C3)cc1`, the “hERG current change (%, negative = inhibition) at 10uM” value is 12.2%.
The result for `CC(=O)c1ccccc1OCCn1nnc(-c2ccc(C)cc2)n1` reads -13.7%; that for `CCOc1ccc(N2C(=O)CC(N3CCc4ccccc43)C2=O)cc1` (stereo not shown), -3.24%.
In the case of `COc1ccc(S(=O)(=O)N(CC(=O)NCc2ccccn2)Cc2ccccc2)cc1`, the “hERG current change (%, negative = inhibition) at 10uM” value is -15.7%.
The result for `COc1cccc(C(=O)CSc2nnc(-c3ccco3)n2CC2CCCO2)c1` (stereo not shown) reads -32.3%.
Turning to `Cc1cccn2c(=O)c3cc(S(=O)(=O)c4ccccc4)c(=N)n(Cc4cccnc4)c3nc12`, the “hERG current change (%, negative = inhibition) at 10uM” value is on record as -66.1%.
With `COc1ccc(S(=O)(=O)NCCCN2CCOCC2)cc1F`, the “hERG current change (%, negative = inhibition) at 10uM” value is reported as 10.9%.
Turning to `O=C(N=Nc1c(O)[nH]c2ccccc12)c1ccc2c(c1)OCO2`, the “hERG current change (%, negative = inhibition) at 10uM” value is on record as 6.09%.
The result for `CC(C)(C)NC(=O)N1CCN(S(=O)(=O)c2ccc3c(c2)CCC3)CC1` reads 11.9%; that for `COc1ccc(OCC(=O)N(Cc2ccc(C)o2)C2CCS(=O)(=O)C2)cc1` (stereo not shown), -19.5%.
The result for `COc1ccccc1C1CC(=O)NC(C)=C1C(=O)OCC1CCCO1` (stereo not shown) reads 5.35%; that for `CCOC(=O)N1CCN(S(=O)(=O)c2ccc(C(=O)NNc3nc4c(C)cccc4s3)cc2)CC1`, -2.43%; that for `O=C(CSc1nnc(-c2ccc(O)cc2)o1)N1CCOCC1`, 5.74%.
The result for `CC(C)CNC(=O)C1C2C=CC(C2)C1C(=O)O` (stereo not shown) reads 30%.
With `Cc1cccc(-c2nc3c(c(SCC(N)=O)n2)CCCC3)c1`, the “hERG current change (%, negative = inhibition) at 10uM” value was -4.49%.
`Cc1ccc(S(=O)(=O)c2cc(Nc3ccccc3)ccc2O)cc1`: the “hERG current change (%, negative = inhibition) at 10uM” value is reported as -0.223%.
`COc1cccc(NC(=O)CN(C)C(=O)CCNC(=O)c2ccc(Br)cc2)c1`: the “hERG current change (%, negative = inhibition) at 10uM” value is -23.8%.
As to `O=C(Nc1cccnc1)c1ccc(NS(=O)(=O)c2cc([N+](=O)[O-])ccc2Cl)cc1`, the “hERG current change (%, negative = inhibition) at 10uM” value was determined as 13.3%.
Next, `O=C(NC1CCCC1)C(c1ccccc1F)N(C(=O)c1ccco1)C1CCCC1` (stereo not shown): -18.3%.
For `COCCNC(=O)/C(C#N)=C/c1ccc2c(c1)OCO2`, the “hERG current change (%, negative = inhibition) at 10uM” value turned out to be 19.1%.
Turning to `O=C(NCCSCc1c(F)cccc1Cl)c1ccc(CN2CCOCC2)cc1`, the “hERG current change (%, negative = inhibition) at 10uM” value is -26.9%.
Turning to `COc1cc(N)c(Cl)cc1C(=O)OCC(=O)N(C)C1CCCCC1`, the “hERG current change (%, negative = inhibition) at 10uM” value amounted to 5.34%.
As to `Cc1c(NC(=O)NC(=O)c2ccc(F)cc2)c(=O)n(-c2ccccc2)n1C`, the “hERG current change (%, negative = inhibition) at 10uM” value is reported as 1.36%.
Next, `COc1ccc(NC2CCCN(C(=O)CSc3ccccc3)C2)cc1` (stereo not shown): -2.05%.
The result for `O=C(NCC1CCCO1)C(c1cccs1)N(Cc1ccccc1)C(=O)c1ccc(-c2ccccc2)[nH]1` (stereo not shown) reads 2.82%; that for `Cc1cc(C)c(C#N)c(N2CCSCC2)n1`, 4.36%.
Next, `COc1cc(CNc2ccc(C)c(C)c2)cc(OC)c1OC`: 3.55%; `COc1ccccc1/C=C1\SC(=S)N(N2C(=O)CCCC2=O)C1=O`: -4.43%.
With `COc1ccc(-c2nc3ccccc3c(=O)n2CCN2CCOCC2)cc1`, the “hERG current change (%, negative = inhibition) at 10uM” value was -5.54%.
Next, `COc1ccc(CN=Cc2[nH]c3ccc(Br)c(Cl)c3c2O)cc1`: -9.91%; `COc1ccc(-c2nc3ccccn3c2NC2CCCCC2)cc1SC1CCCCC1.O=C(O)C(F)(F)F`: 2.91%; `O=C(Cc1ccc(F)cc1)Nc1cccc(-c2ccc3nncn3n2)c1`: -21.4%.
Regarding `O=C(NC(Cc1ccccc1)C(=O)O)/C(=C\c1ccc(Cl)cc1)NC(=O)c1ccccc1` (stereo not shown), the “hERG current change (%, negative = inhibition) at 10uM” value worked out at 23.8%.
As for `O=C(c1ccc(C(F)(F)F)cc1)C1CCCN(C(=O)c2csnn2)C1` (stereo not shown), the “hERG current change (%, negative = inhibition) at 10uM” value is -22.6%.
In the case of `O=C(c1ccc(OC(F)(F)F)cc1)c1ncc[nH]1`, the “hERG current change (%, negative = inhibition) at 10uM” value came out at 5.8%.
With `CCc1nc2c(cnn2-c2ccc(Cl)cc2)c(=O)n1-c1ccc(OC)cc1`, the “hERG current change (%, negative = inhibition) at 10uM” value is given as -3.59%.
Next, `NC(=O)C(c1ccc(Sc2ccccc2)nn1)c1ccc(Cl)cc1Cl` (stereo not shown): -43.9%; `O=[N+]([O-])c1ccc(-n2cnc3ccccc32)c([N+](=O)[O-])c1`: -57.8%; `Cc1ccccc1NN=Nc1nc2c([nH]1)c(=O)n(C)c(=O)n2C`: 13.6%.
`CC(=O)Nc1ccc(S(=O)(=O)Nc2nc3c(s2)CCCC3)cc1`: the “hERG current change (%, negative = inhibition) at 10uM” value is reported as 4.81%.
Turning to `COc1ccc(C)cc1NC(=O)NCCC1=CCCCC1`, the “hERG current change (%, negative = inhibition) at 10uM” value is listed as -10.8%.
Turning to `CN1CCN(NC(=O)c2ccc(Br)c(S(=O)(=O)N3CCOCC3)c2)CC1.Cl`, the “hERG current change (%, negative = inhibition) at 10uM” value stood at 12.8%.
Take `COC(=O)c1ccccc1NC(=O)Cn1nnc(-c2ccc(OC)cc2)n1`: the “hERG current change (%, negative = inhibition) at 10uM” value is given as -0.407%.
The result for `Cc1[nH]n(-c2ccccc2)c(=O)c1C=NCCc1ccccc1` reads -12.7%; that for `Cc1ccc(-c2nc3ccccc3o2)cc1NC(=S)NC(=O)/C=C/c1ccco1`, 13.7%; that for `O=C(NCc1ccccc1)C(=O)NCC(c1ccco1)N1CCN(c2ccccc2F)CC1` (stereo not shown), -0.97%.
The result for `CCC(=O)Nc1nc2c(c(=O)[nH]1)CCCC2` reads 14.7%.
Next, `CN1C(=O)C(C)(C)c2cc(S(=O)(=O)N3CCN(c4ccccc4)CC3)ccc21`: -25.5%; `O=C(CN1CSCC1=O)N1CCN(S(=O)(=O)c2ccc(Cl)cc2)CC1`: -26.6%.
For the compound `Cc1ccc(Cn2c(=O)oc3ccccc32)cc1`, the “hERG current change (%, negative = inhibition) at 10uM” value worked out at 10.5%.
Consider `CCS(=O)(=O)N1CCN(C(=O)COc2ccc(-c3ccccc3)cc2)CC1`, for which the “hERG current change (%, negative = inhibition) at 10uM” value was -47.4%.
Next, `COc1ccc(-c2nc3ccccc3c(=O)n2-c2c(C)n(C)n(-c3ccccc3)c2=O)cc1`: -0.296%; `CCOC(=O)c1cc(=O)n2c(nc3ccccc32)[nH]1`: 8.23%.
Next, `NC(=O)NC(Cc1ccccc1)C(=O)O` (stereo not shown): 24.8%.
The result for `COc1ccc(NC(=O)Nc2ccc([N+](=O)[O-])cc2)cn1` reads 9.11%; that for `CN1C/C(=C/c2cccs2)C(=O)/C(=C\c2cccs2)C1`, -13.8%; that for `COC(=O)c1ccccc1NC(=O)c1sc(N)nc1C`, 11.1%.
Take `O=C(Nc1ccc(Cc2ccncc2)cc1)c1ccc(Cl)c([N+](=O)[O-])c1`: the “hERG current change (%, negative = inhibition) at 10uM” value is reported as -12.3%.
The result for `CC(=O)Nc1ccc(S(=O)(=O)Nc2nnc(C3CCCCC3)s2)cc1` reads 15.8%; that for `O=c1[nH]c(/C=C/c2cccc3ccccc23)nc2ccccc12`, 36.4%.
With `O=C(Cn1cc(S(=O)(=O)Cc2ccccc2)c2ccccc21)Nc1ccccc1`, the “hERG current change (%, negative = inhibition) at 10uM” value stood at 4.23%.
Next, `O=C(CN1C(=O)CCSc2ccc(S(=O)(=O)N3CCCC3)cc21)NCc1ccccc1Cl`: -9.59%.
Take `CN(Cc1cccs1)C(=O)CCc1c[nH]c2ccccc12`: the “hERG current change (%, negative = inhibition) at 10uM” value is -1.59%.
Regarding `N#C/C(=C(/O)COc1ccccc1)c1nnc2n1CCCCC2`, the “hERG current change (%, negative = inhibition) at 10uM” value came to 9.43%.
The result for `Cc1cc2oc(=O)cc(CN3CCN(S(=O)(=O)/C=C/c4ccccc4)CC3)c2cc1C` reads 1.24%; that for `Cn1nnnc1SC(C(=O)Nc1ccc(F)cc1)c1ccccc1` (stereo not shown), 0.428%.
`Cc1ccc(NC(=O)Cn2c(=O)c3cccn3c3ccccc32)c(C)c1`: the “hERG current change (%, negative = inhibition) at 10uM” value is recorded as -2.61%.
Next, `CCC(c1nnnn1C1CCCC1)N1CCN(Cc2ccccc2)CC1.Cl` (stereo not shown): -34.6%.
With `O=C(CCC1CCCCC1)NCCS(=O)(=O)N1CCN(c2ccccc2)CC1`, the “hERG current change (%, negative = inhibition) at 10uM” value is given as 7.85%.
With `COc1ccc(-n2c(N)c(Br)c(=O)[nH]c2=O)cc1`, the “hERG current change (%, negative = inhibition) at 10uM” value was -3.12%.
For the compound `COc1cc(C2NCc3ccccc3-n3cccc32)ccc1O.Cl` (stereo not shown), the “hERG current change (%, negative = inhibition) at 10uM” value was -23%.
Next, `COC(=O)C1=C(c2cccc3c2S(=O)(=O)c2ccccc2-3)C[C@@H]2CC[C@H]1N2C(=O)N1CCc2cc(OC)c(OC)cc2C1`: 15.4%; `C#CCOC(=O)Nc1ccc(OCC(F)(F)F)nc1`: 1.66%.
Consider `COc1ccc(NC(=O)c2ccc(-n3cccn3)c([N+](=O)[O-])c2)cc1`, for which the “hERG current change (%, negative = inhibition) at 10uM” value is recorded as -12.3%.
Next, `CCC(=O)Nc1nnc(S(=O)(=O)N2CCc3ccccc32)s1`: 4.56%.
For `[O-]/[N+](=C\C=C\c1ccccc1)c1ccccc1`, the “hERG current change (%, negative = inhibition) at 10uM” value stood at 15.4%.
